± gives the standard deviation of the averaged measurements. This is one part of the list.

This note sets out measurements from the supplement of paper PMC11417369.

This experiment relates to PfAP2-I AP2 domain 3 (GST-tagged). Description: gcPBM binding intensity (ln(normalized median fluorescence intensity)); higher = stronger DNA binding. The gist of the method: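 The highest Masliner-normalised natural-log median intensity across replicate spots of either probe orientation is reported as binding intensity. GST-tagged P. falciparum DNA-binding domains expressed in E. coli were applied for 1 h to an Agilent 4 × 180k array of primer-extended double-stranded 36-bp intergenic genomic probes plus negative controls, and bound protein was detected with Alexa488 anti-GST antibody and scanned at 488 nm.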
Take “TCCCTTAAAATGATATGTACATAAAAATAAAAAAAA [XGTACX_site836]”: the “gcPBM binding intensity (ln)” value came out at 7.92 ± 0.35.

Take “AAAACAATAATATACTGTACATATATATAATAACAT [XGTACX_site6188]”: the “gcPBM binding intensity (ln)” value is 7.87 ± 0.54.

Regarding “CATACACATACACATACACACGCATAGAAACATACG [CACACA_site8666]”, the “gcPBM binding intensity (ln)” value amounted to 8.41 ± 0.68.

Consider “AATTTTTCATCAAGTTGTACAATTATTTGTTTGTTT [XGTACX_site3113]”, for which the “gcPBM binding intensity (ln)” value worked out at 7.8 ± 0.59.

In the case of “AAATTCAGGTTATATTTTAATTTTTTTTTGTTTTTT [CACACA_negctrl_site924]”, the “gcPBM binding intensity (ln)” value is 7.29 ± 0.69.

For the sequence “CAATATTTTTTATAGGGTACAAAAGATAAAAAAAAA [XGTACX_site6298]”, the “gcPBM binding intensity (ln)” value came to 8.44 ± 0.71.

As to “CATATTTGGAAACACACACACATATTTATATATATA [CACACA_site3569]”, the “gcPBM binding intensity (ln)” value amounted to 8.59 ± 0.71.

As for “TATATTTTACTCTTCACACATATACTCAATTTATAT [CACACA_site5357]”, the “gcPBM binding intensity (ln)” value was found to be 7.96 ± 0.48.

Regarding “AAAAGAAAAAGAAAAACACACATAAATATAAATATA [CACACA_site1879]”, the “gcPBM binding intensity (ln)” value was found to be 7.37 ± 0.64.

Consider “AAAATTTTCTTTTTATGTACACATAATTTTACCGGA [XGTACX_site5276]”, for which the “gcPBM binding intensity (ln)” value was 8.01 ± 0.56.

As for “TTCTTTTCTTTTTTCTTTTTTTTTTTCTTTTCTTTT [GTGCAC_negctrl_site630]”, the “gcPBM binding intensity (ln)” value was 7.68 ± 0.61.

As for “AGAAAAGGACATATATGTACTTATCAATATAGAAAC [XGTACX_site1042]”, the “gcPBM binding intensity (ln)” value turned out to be 7.83 ± 0.6.

With “AAAAAAAAAAAAAAAACATGCAAAATAATATATATA [TGCATGCA_site68]”, the “gcPBM binding intensity (ln)” value is 8.42 ± 0.55.

On to “TCACATATGTTCCATTGTACTTGTAGTAATTTTTTC [XGTACX_site6473]”, for which the “gcPBM binding intensity (ln)” value came out at 7.72 ± 0.6.

Regarding “GTAATATGTATCCATACACACATACATTTTATTTGC [CACACA_site4640]”, the “gcPBM binding intensity (ln)” value was found to be 7.98 ± 0.37.

For the sequence “ATAAAATGAAATATATGTACGCATCACTTGTTGAAC [XGTACX_site4530]”, the “gcPBM binding intensity (ln)” value worked out at 7.87 ± 0.5.

For “TGCTAATAATTATTTGTTTAGCAACAAAAAAAAAAA [CACACA_negctrl_site1541]”, the “gcPBM binding intensity (ln)” value was 8.18 ± 0.98.

On to “TAATTAAAAAATAAAAAAAAAAAAAATTAAAACAAA [CACACA_negctrl_site500]”, for which the “gcPBM binding intensity (ln)” value worked out at 7.2 ± 0.58.

Regarding “TTCTTTTTAATTTATTTTTTCTTATAACAAGAAAAC [CACACA_negctrl_site201]”, the “gcPBM binding intensity (ln)” value was 7.83 ± 0.49.

As for “GTACATACATAAAACACACACATATATATATATATA [CACACA_site1826]”, the “gcPBM binding intensity (ln)” value was 9.32 ± 0.26.

On to “GCTATAATAAAATTTAAACACACGTAATATAATATA [CACACA_site2592]”, for which the “gcPBM binding intensity (ln)” value came to 7.75 ± 0.54.

In the case of “AAAATTTCATAAAGACGTACTATAAAAATAAAATTA [XGTACX_site4182]”, the “gcPBM binding intensity (ln)” value is 7.79 ± 0.41.

Take “GAAAAAAAAAAAAATACACACAAATTGGTATATAAC [CACACA_site6315]”: the “gcPBM binding intensity (ln)” value was 7.61 ± 0.55.

“TATAAAAAATATCCTTTTTTTATACATCAATATATA [TGCATGCA_negctrl_site291]”: the “gcPBM binding intensity (ln)” value stood at 7.33 ± 0.42.

Consider “CACTAATAGTGGATTACACACATATAGATGTATATA [CACACA_site7234]”, for which the “gcPBM binding intensity (ln)” value amounted to 8.23 ± 0.33.

With “AAAAATTCTTGGCGCACACACTTTAAAAGTTAAAAA [CACACA_site6430]”, the “gcPBM binding intensity (ln)” value was determined as 8.56 ± 0.31.

As to “GTATATTTCTTTAAATGTACACATTTTTTTAAAGAG [XGTACX_site1225]”, the “gcPBM binding intensity (ln)” value worked out at 7.945 ± 0.064.

As to “AATTGTATAAATGGAATAATGACTATGATTATACAT [GTGCAC_negctrl_site188]”, the “gcPBM binding intensity (ln)” value amounted to 7.86 ± 0.69.

As for “ACAAAGACAATTTTGTTATATATAAAAAAAAAAAAT [CACACA_negctrl_site253]”, the “gcPBM binding intensity (ln)” value is 7.59 ± 0.68.

Regarding “TATATAAAACCTTATTGTACTATTAGACTATGCTTA [XGTACX_site6026]”, the “gcPBM binding intensity (ln)” value amounted to 7.47 ± 0.47.

In the case of “CAAATATCTATTTAGTGTACTAATATATTCAATAAT [XGTACX_site2345]”, the “gcPBM binding intensity (ln)” value is 7.93 ± 0.32.

Consider “ATAGCATATATTTTTTGTACATATGTTATATATATA [XGTACX_site2184]”, for which the “gcPBM binding intensity (ln)” value worked out at 8.51 ± 0.099.

For the sequence “TACAAATATATATGCACACACATATCTGTATATGTG [CACACA_site5663]”, the “gcPBM binding intensity (ln)” value came to 9.32 ± 0.13.

For “ATTAATTTTCCATTCACACATATATATATATATATA [CACACA_site6065]”, the “gcPBM binding intensity (ln)” value came out at 9.38 ± 0.22.

Turning to “ATGTAGATATATATCTGTACGTATATGTAAATATTA [XGTACX_site1516]”, the “gcPBM binding intensity (ln)” value stood at 8 ± 0.44.

With “AATTCTTTTTATATATTAAATATTATTAATAAGTCA [CACACA_negctrl_site1488]”, the “gcPBM binding intensity (ln)” value was 7.46 ± 0.57.

In the case of “ACACATTATAACAAGGTGCAATTTTTATACACATGT [GTGCAC_site9866]”, the “gcPBM binding intensity (ln)” value came to 9.515 ± 0.021.

For the sequence “TTTTAAAATATCAACACACTCATTATTTTCTATATT [CACACA_site4740]”, the “gcPBM binding intensity (ln)” value is 7.7 ± 0.47.

Consider “AAAATAAAAACAAAATCACACATTCCAGTTTTTTTT [CACACA_site5356]”, for which the “gcPBM binding intensity (ln)” value amounted to 7.5 ± 0.63.

Regarding “TCATTCTATCTGTTCACACATACACAAAAAAAAAAA [CACACA_site5141]”, the “gcPBM binding intensity (ln)” value was determined as 8.21 ± 0.38.

Take “AAGGTCATTTTATATTGTACATGAAATTGTTATGTA [XGTACX_site187]”: the “gcPBM binding intensity (ln)” value amounted to 7.61 ± 0.51.

“ATATACAGATAAATGTGTACTTAAATCTATTATATT [XGTACX_site2632]”: the “gcPBM binding intensity (ln)” value came to 7.58 ± 0.3.

For “ATATATTTTGTATGTAGTACAATTTTATAATCATAT [XGTACX_site8373]”, the “gcPBM binding intensity (ln)” value is 7.88 ± 0.18.

As to TCAATTTGGAACGGTATGCACTAATTTTATATTTTT, the “gcPBM binding intensity (ln)” value is 9.02 ± 0.19.

For “TATTACAAATATGGCACACATATATATATATATATT [CACACA_site3268]”, the “gcPBM binding intensity (ln)” value is 8.69 ± 0.2.

With “AATAATGAATACACATGTACAAAAATTTTTCTTACT [XGTACX_site1962]”, the “gcPBM binding intensity (ln)” value came to 7.79 ± 0.62.

“AAAAAAAACAGACACACACACAAATATATAAAAATA [CACACA_site1172]”: the “gcPBM binding intensity (ln)” value stood at 7.77 ± 0.48.

On to “TTTTTGAAATAATGAAACAGCAAAAAAACAAAAATA [CACACA_negctrl_site221]”, for which the “gcPBM binding intensity (ln)” value amounted to 8.04 ± 0.61.

“TATTAAAAGAAAATAACACACACAAAAAAAAAAAAA [CACACA_site8661]”: the “gcPBM binding intensity (ln)” value was found to be 7.96 ± 0.61.

Consider “AAAATAAGCGTGAAACGTACATATTACATTATTATA [XGTACX_site8914]”, for which the “gcPBM binding intensity (ln)” value was 7.51 ± 0.54.

“ATAATATATATATAGTGTACATTTGAATATATTTGA [XGTACX_site583]”: the “gcPBM binding intensity (ln)” value worked out at 7.67 ± 0.45.

Regarding “GTATACTTAACATTCACACATATATATATATATAAA [CACACA_site4596]”, the “gcPBM binding intensity (ln)” value was 7.82 ± 0.63.

“AATTATTTACCTTCTTTGAAAGAACAAATGATACAA [CACACA_negctrl_site1315]”: the “gcPBM binding intensity (ln)” value turned out to be 7.82 ± 0.59.

For the sequence “ATATATATATATATATGTACTTATAATTCTTCAATT [XGTACX_site5627]”, the “gcPBM binding intensity (ln)” value worked out at 9.24 ± 0.4.

As to “ATATATCAACTCATATTATTTTCTTTTATTATTTAT [CACACA_negctrl_site276]”, the “gcPBM binding intensity (ln)” value was 7.56 ± 0.76.

In the case of “ATTTATCTATAATATACACACATATAACAGACATAT [CACACA_site6469]”, the “gcPBM binding intensity (ln)” value came out at 7.88 ± 0.28.
